Measurements taken from PubChem BioAssay (NCI).
“And” between values parts separate entries of the source, which are not always exact repeats. Identical values can stand only once.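 48-hour exposure; five concentrations; linearly interpolated endpoints. GI50 marks 50% less growth. TGI denotes the concentration required for complete inhibition of growth.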

System: NCI-H322M lung
Experiment: NCI-60 cell line screen, 48 h

| Compound | TGI | GI50 |
| --- | --- | --- |
| CCC(=O)NCC1(c2c[nH]c3ccccc23)SCCS1 | > 100 µM |  |
| CC[O+]=c1cccc2ssnc1-2 | > 100 µM |  |
| O=[N+]([O-])/C(Cl)=C(\Sc1ccccc1)C(Cl)=C(Cl)Cl | 3.45 µM |  |
| C=C(Cl)C(Br)(CCl)CCC(Cl)C(C)C (stereo not drawn) (tested in a mixture with another compound) | 15.3 µM |  |
| N=C(N)SC1c2ccccc2-c2cc([N+](=O)[O-])ccc21 (stereo not drawn) | 29.2 µM |  |
| N#CC1(C#N)C(c2ccccc2)NC23CCCCC2C1(C#N)C(=O)N3 (stereo not drawn) | > 100 µM |  |
| Cc1nc(SCC(=O)Nc2ccccc2)c2sc(=S)n(-c3ccccc3)c2n1 | > 10 µM |  |
| COc1ccc(-c2ccc(=O)oc2-c2cc(OC)c(OC)c(OC)c2)cc1O | > 100 µM | > 100 µM |
| CC1=C(CC/C(C)=C/CCC2(C)CCC([C@H](C)C(=O)O)OO2)C(C)(C)CCC1 (stereo partly drawn) (tested in a mixture with another compound) | > 100 µM |  |
| COc1cc(CSc2ccc(O)cc2)cc(O)c1O | > 100 µM |  |
| Cc1ccc2nc(NC(=O)CSC(=S)N3CCN(Cc4ccccc4)CC3)sc2c1 | > 100 µM | > 100 µM |
| O=C(c1cccs1)N(C(=S)OCc1ccccn1)c1ccccc1 | > 100 µM |  |
| COC(=O)C(=O)C(C(=O)C(=O)Nc1ccc([N+](=O)[O-])cc1C#N)c1nc2ccc([N+](=O)[O-])cc2[nH]c1=O (stereo not drawn) | > 100 µM |  |
| Nc1nc(Cl)cc(NCCCCO)n1 | > 100 µM |  |
| S=c1scc(-c2ccc(Cl)cc2)n1OC1CCCC1 | > 100 µM |  |
| COC(=O)c1cc(Cl)ccc1NC(=O)C1CCCCC1 | > 100 µM |  |
| Cc1nnc2sc(-c3ccc(N)cc3)nn12 | > 100 µM |  |
| COc1ccc(/C=C2/CCOC2=O)cc1 | > 100 µM | > 100 µM |
| Cc1cc(C)c(S(=O)(=O)Oc2ccccc2[N+](=O)[O-])c(C)c1 | > 100 µM | 4.07 µM |
| COc1ccc(Oc2nc3cc(C(F)(F)F)ccc3nc2C(C)C)cc1 | > 100 µM |  |
| CCCCCCCCCCCCCCCCCCNc1ccn(C2OC(COP(=O)(O)OCCCCCCCCCCCCCCCC)C(O)C2O)c(=O)n1 (stereo not drawn) | > 100 µM |  |
| Cc1cc(Cl)ccc1OCC(=O)Oc1c(Cl)c(Cl)c(Cl)c(Cl)c1Cl | 55.2 µM |  |
| O=C(N/N=C/c1cc(Br)cc(Br)c1[O-])c1ccccc1O.O=C(N/N=C/c1cc(Br)cc(Br)c1[O-])c1ccccc1O.[Cl-].[Fe+3] | 17.6 µM |  |
| CC(C)(C)OC(=O)N(CCCn1c2c(c3ccccc3c1=O)C(=O)c1ccccc1-2)CCN(CCCn1c2c(c3ccccc3c1=O)C(=O)c1ccccc1-2)C(=O)OC(C)(C)C | > 50 µM | > 50 µM |

| Compound | TGI | GI50 |
| --- | --- | --- |
| COC(=O)/C=C\C1C(C(=O)OC)C2(C(=O)OC)CCC1(C(=O)OC)N2 (stereo not drawn) | 30.4 µM |  |
| NC(=O)c1nnc2cc(F)c(F)cc2c1N | > 100 µM |  |
| CNC(=O)OC(C)CN1c2ccccc2Sc2ccccc21 (stereo not drawn) | > 100 µM |  |
| CC(=O)OC1CC(C)c2c1ncnc2N1CCN(C(=O)OC(C)(C)C)CC1 (stereo not drawn) | > 100 µM | 47.2 µM |
| CC(=O)OC1C(O)COC(Oc2c(C)c3c4c(c2O)[C@@H](C)CC[C@@H]4[C@@H](C)C[C@H]3C=C(C)C)C1O (stereo partly drawn) | 25.8 µM | 12.3 µM |
| COC(=O)[C@@H]1C[C@H]2[C@H](c3ccccc3Br)[C@@H](OC(C)=O)[C@@H](OCc3ccccc3)ON2O1 | > 100 µM |  |
| NC(CCc1nc(-c2ccccc2)cs1)C(=O)O (stereo not drawn) | > 100 µM |  |
| O=c1c2cc(-c3ccccc3)sc2nc2sc(-c3ccccc3)nn12 | > 100 µM |  |
| CN1C(=O)NC2(O)c3ccccc3C(=O)C12O (stereo not drawn) | > 100 µM |  |
| Cc1ccc(S(=O)(=O)NC(C)C(=O)O)cc1 (stereo not drawn) | > 100 µM |  |
| CN1CCN(c2ccc3nc(-c4ccc5nc(-c6ccc(C(F)(F)F)cc6)[nH]c5c4)[nH]c3c2)CC1 | 3.77 µM | 1.92 µM |
| CCCNCC(O)/C=C/[Si](C)(C)C (stereo not drawn) (tested in a mixture with another compound) | > 100 µM |  |
| CCCCCCCCCCSS(=O)(=O)c1ccc(C)cc1 | 40.8 µM |  |
| COc1cc([C@@H]2c3cc4c(cc3[C@@H](NC(=O)c3ccc(C(C)=O)cc3)C3COC(=O)[C@@H]32)OCO4)cc(OC)c1O (stereo partly drawn) | 75.6 µM |  |
| CC(C)[C@H](COC(C)(C)C)N=CN1CSc2ccccc21 | 82 µM |  |
| COc1ncnc2c1ncn2C/C(Br)=C(\Br)CCl | 24.9 µM | 12.4 µM |
| O=c1oc2ccccc2c(O)c1C(c1ccc([N+](=O)[O-])cc1)c1c(O)c2ccccc2oc1=O | > 100 µM |  |
| Clc1ccc(OCc2nnc(CCCCCCCCc3nnc(COc4ccc(Cl)cc4)o3)o2)cc1 | > 100 µM |  |
| O=C(C1=CCC2(CC1)OCCO2)N(Cc1ccccc1)c1ccccc1I | 37.7 µM |  |
| Cc1ccc(-c2n[nH]c(CC#N)n2)cc1 | > 100 µM |  |
| CCCCCCCCCCCCCCCC[N+](C)(C)C | 11.4 µM | 2.72 µM |
| Cc1cc2cc(Oc3ccnc(Nc4cccc(CS(=O)(=O)NCCN(C)C)c4)n3)ccc2[nH]1 | 25.2 µM | 12.2 µM |
| Cc1c(Cl)c(S(N)(=O)=O)cc(S(N)(=O)=O)c1NC(=O)c1ccc(Cl)cc1 | > 100 µM |  |
| COc1cccc(NC(=O)c2c(SC)n[nH]c2N)c1 | > 100 µM |  |

| Compound | TGI | GI50 |
| --- | --- | --- |
| CN(C)c1ccc2c(SCC(=O)OCC(=O)[C@@]3(O)CC[C@H]4[C@@H]5CCC6=CC(=O)C=C[C@]6(C)[C@H]5C(=O)C[C@@]43C)c3ccc(N(C)C)cc3nc2c1 | > 100 µM |  |
| O=[N+]([O-])/C=C/c1cccc(F)c1 | 34.3 µM |  |
| Nc1nonc1-c1noc(-c2nonc2N)[n+]1[O-] | > 100 µM |  |
| C=C(/C=C/C=C(/CCC=C(C)C)COC(C)=O)[C@@H]1CC[C@]2([C@H](CCCO)/C(=C(/C)C=O)CC[C@]2(C)O)[C@@H]1O | 32.2 µM |  |
| O=C(CN1C(=O)c2ccccc2C1=O)OC1C=CCCC1 (stereo not drawn) | > 100 µM |  |
| C=CC1(C)/C(=N\O)C(C)(CC)C(=O)N1O (stereo not drawn) | > 100 µM |  |
| CCOc1ccc2c(-c3ccnc(Nc4cccc(C(F)(F)F)c4)n3)cnn2n1 | > 25 µM | > 22 µM |
| CCOC(=O)C1=C(C)N(Cc2ccc(Cl)cc2Cl)C2(O)C(OC)CC(=O)C3C(=O)N(c4ccccc4)C(=O)C132 (stereo not drawn) | 22.2 µM |  |
| c1csc(-c2cc(-c3ccsc3)c(-c3cccs3)s2)c1 | > 100 µM |  |
| C=C(C)[C@@H]1CC[C@]2(c3ncc(C)o3)CC[C@]3(C)[C@H](CC[C@@H]4[C@@](C)(CCC#N)[C@H](C(=C)C)CC[C@]43C)[C@@H]12 | 26.3 µM | 10.3 µM |
| CCN(CC)CCNC(=O)c1ccccc1Nc1c(Cl)cccc1Cl | 26.3 µM |  |
| CNC1=C(Br)C(=O)C2=C(C1=O)C1C3=C(C(=O)C=CC3=O)C2c2ccccc21 (stereo not drawn) | 38.4 µM | 19.5 µM |
| CC(=O)N1C(=O)C(=O)c2cc(Cl)ccc21 | > 100 µM |  |
| C/C(=C\c1ccccc1)C(O)S(=O)(=O)O (stereo not drawn) | > 100 µM |  |
| CCCCNC(=O)C1=C(C)NC(C)=C(C(=O)NCCCC)C1 | > 100 µM |  |
| COc1cc2c3c(n(CCCn4cccn4)c(=O)c2cc1OC)-c1cc2c(cc1C3=O)OCO2 | > 100 µM | 9.73 µM |
| O=C1c2ccccc2C(=O)c2c1c(NCCNCCO)c1cc[nH]c1c2NCCNCCO | 9.44 µM | 2.26 µM |
| C/C(=N/NC(=S)Nc1cccc(Cl)c1)c1cccc(/C(C)=N\NC(=S)Nc2cccc(Cl)c2)n1 | 43 µM |  |
| CCOC(=O)c1c2ccccc2n2c(=O)n(C)nnc12 | > 100 µM |  |
| CC(=O)NC1C(OCc2ccccc2)OC(CO)C(O)C1OCC(=O)NC(C)C(=O)NC(CCC(=O)OCCNC(=O)c1cccc2cc3ccccc3nc12)C(N)=O (stereo not drawn) | 54.1 µM |  |
| Cc1cc(Cl)ccc1N1C(=O)C(=O)C(c2nc3ccccc3s2)/C(=N\NC(=O)c2ccccc2O)C1=O (stereo not drawn) | > 100 µM |  |
| CSc1ccc2c(cc1=O)C(NC(=O)c1cc(O)c(OC(=O)O)c(O)c1)CCc1cc(O)c(O)c(O)c1-2 (stereo not drawn) | > 9 µM |  |
| CCCCCn1ncc(-c2c(O)c(O)cc3c(O)c(-c4c(C)cc5c(-c6cnn(CCCCC)n6)c(O)c(O)cc5c4O)c(C)cc23)n1 | 6.19 µM | 0.914 µM |
| Cc1ccccc1N=Nc1ccc(N=Nc2c(O)ccc3cc(S(=O)(=O)O)cc(S(=O)(=O)O)c23)c(C)c1 | > 100 µM |  |

| Compound | TGI | GI50 |
| --- | --- | --- |
| Fc1ccc(C(OCCN2CC3CC2CN3CCCc2ccccc2)c2ccc(F)cc2)cc1 (stereo not drawn) | 26 µM |  |
| O=C(CN1CCOCC1)NC1=Nc2ncccc2C(=O)NN1 | > 10 µM |  |
| C/C(CC(=O)Nc1ccc(C)cc1)=N\NC(N)=S | > 100 µM |  |
| CCCCn1c(=O)c(/C=C/C(=O)/C=C/c2ccc(O)c(OC)c2)cc2ccc(Cl)cc21 | 4.56 µM | 2.01 µM |
| Cn1c2nc(=Nc3ccc(Cl)cc3)n3ccc4ccccc4c3c2c(=O)n1-c1ccccc1 | > 100 µM |  |
| COc1ccc(CCNC(=O)Cc2ccccc2CCO)cc1OC | > 100 µM |  |
| c1ccc2c(c1)[Se]c1ccccc1[Se]2 | > 100 µM |  |
| CC(C)c1cccc2sc(NC(=O)C(=O)CC(=O)c3ccc(F)cc3)nc12 | > 100 µM |  |
| COc1cc2c(cc1OCCN1C(=O)c3cccc4cccc(c34)C1=O)N=C[C@@H]1CCCN1C2=O | 50 µM and > 100 µM | 42.2 µM |
| CCN(CC)CC1CCCCN1CC(=O)N1c2ccc(Br)cc2C(=O)Nc2cccnc21 (stereo not drawn) | > 100 µM |  |
| COc1cc(/C=C\c2cc(/C=C\c3ccc(O)c(OC)c3)n(C(=O)Nc3ccc(C(F)(F)F)cc3)n2)ccc1O | 12.9 µM | 3.25 µM |
| COC(=O)c1ccccc1C1CN=NC12Cc1c(C)c3c(c(C)c1C2=O)CCC3 (stereo not drawn) | > 100 µM |  |
| C1CSCCSS[C@@H]2CCCCC2SC1 (stereo partly drawn) | > 100 µM |  |
| COc1cccc2c1[C@H](OC)[C@]13O[C@@]1(C2=O)[C@H](O)[C@H](C)[C@@](O)(C(=O)[C@@H]1O[C@H]1C)[C@@H]3O | 5.02 µM |  |
| COc1cc2c(cc1OC)C(C1(O)CCCCC1)NCC2 (stereo not drawn) | > 100 µM |  |
| C[n+]1ccccc1/C=C/c1ccc2c(c1)OCO2 | > 10 µM |  |
| O=C(O)c1cc2c3c(c1)[C@H]1C=CC[C@H]1CN3CC1CC=CC21 (stereo partly drawn) | > 100 µM |  |
| O=c1[nH]ncc2[nH]c3c(c12)CCCc1ccccc1-3 | > 100 µM |  |
| N#C/C(=C\N1CCNC1=S)C(=O)c1ccc2ccccc2c1 | > 100 µM |  |
| COc1cc2c(c(OC)c1OC)C(=O)c1c-2n(CCCN)c(=O)c2cc([N+](=O)[O-])ccc12 | 3.12 µM | 0.73 µM |
| CC1(C)[C@@H]2C[C@H]1C(Cc1ccccc1C[C@H]1c3cc(-c4ccccn4)ncc3[C@H]3C[C@@H]1C3(C)C)c1cc(-c3ccccn3)ncc12 (stereo partly drawn) | 35 µM |  |
| NC(N)=N/N=C/c1c(-c2ccc(Cl)c(Cl)c2Cl)nc2sccn12 | 2.76 µM |  |
| CC(=O)[CH-]C(=O)c1ccccc1.CC(=O)[CH-]C(=O)c1ccccc1.[O-]c1ccc(O)cc1.[O-]c1ccc(O)cc1.[Ti+4] | > 100 µM | 32.4 µM |
| CN(C)CCCNC(=O)c1cc(NC(=O)CCCn2c3ccccc3c3ccccc32)cn1C | > 100 µM |  |
